Drawing on PubChem BioAssay AID1745853 (National Center for Advancing Translational Sciences (NCATS), 2022), this text covers activity change, negative = inhibition for 35 compounds.

Assay in all cases: Primary Screen for Target Class Profiling of Small Molecule Inhibitors of Methyltransferases
For assay [1], the target named is Guanidinoacetate N-methyltransferase (Homo sapiens) (UniProt Q14353). As to conditions: purified enzyme, MTase-Glo SAH luminescence; measured here: GAMT inhibition; at 40 µM; stronger effect = lower value. In a few lines: (§1)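 Each enzyme was reacted with SAM and its substrate, with compounds tested once at 40 uM; SAH formed was read by MTase-Glo luminescence.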
Assay [2] has as its target Nicotinamide N-methyltransferase (Homo sapiens) (UniProt P40261). As to conditions: purified enzyme, MTase-Glo SAH luminescence; measured here: NNMT inhibition; at 40 µM; stronger effect = lower value. In short, it runs like this: as §1
In assay [3] the target is Phenylethanolamine N-methyltransferase (Homo sapiens) (UniProt P11086). As to conditions: purified enzyme, MTase-Glo SAH luminescence; measured here: PNMT inhibition; at 40 µM; stronger effect = lower value. In short, it runs like this:
as §1

In assay [4] the target is Glycine N-methyltransferase (Homo sapiens) (UniProt Q14749). As to conditions: purified enzyme, MTase-Glo SAH luminescence; measured here: GNMT inhibition; at 40 µM; stronger effect = lower value. In a few lines: as §1
For assay [5], the target named is Histamine N-methyltransferase (Homo sapiens) (UniProt P50135). As to conditions: purified enzyme, MTase-Glo SAH luminescence; measured here: HNMT inhibition; at 40 µM; stronger effect = lower value. In short, it runs like this:
as §1

Several values for one entry are separate records, joined by “and”; a condition that tells them apart may be missing. Identical values can stand only once. The list shows a part of the results. Shown are side measurements of this screen, not its main read-out; they come without a call.
On the % scale 0 is the no-effect control and ±100 the full control effect.

For `O=C1CCCC2=C1C(c1ccccc1I)N=C(Nc1nc3ccccc3o1)N2` (stereo unspecified), the activity change, negative = inhibition is -8.8% in assay [1], -28.4% in assay [2] and -3.47% in assay [3].

For the compound `COc1ccc(-c2nnc(-c3ccc(OC)c(S(=O)(=O)N4CCC(C)CC4)c3)o2)cc1OC`, the activity change, negative = inhibition in assay [4] is -3.53%; in assay [1] it was 0.729%; in assay [5] it was 11.7%; in assay [2], -5.09%; in assay [3] it was 8.65%.

As to `CC(C)(C)c1nnc(NS(=O)(=O)c2ccccc2)s1`, the activity change, negative = inhibition in assay [4] was 6.27%; in assay [1] it was 4.49%; in assay [5], 7.92%; in assay [2], -8.28%; in assay [3], 4.69%.

As to `CCn1cc(-c2ccc(C)cc2)cc1C(=O)O`, the activity change, negative = inhibition in assay [4] is -8.02%; in assay [1], -9.57%; in assay [5], -3.14%; in assay [2] it was -10.5%; in assay [3] it was -3.68%.

For `CCC(C)NC(=O)c1ccc2c(=O)n(C)c3nn(CC(=O)Nc4cccc(F)c4)c(=O)n3c2c1` (stereo unspecified), the activity change, negative = inhibition was 4.37% in assay [4]; 0% in assay [1]; -1.71% in assay [5]; 0.849% in assay [2]; 4.08% in assay [3].

As to `O=C(CCc1nnc2n(Cc3ccccc3)c(=O)c3ccccc3n12)NCCN1CCCC1`, the activity change, negative = inhibition in assay [4] was -3.75%; in assay [1], 0%; in assay [5], -28.3%; in assay [2], 5.07%; in assay [3], 4.25%.

As for `C=CCn1c(=O)c2ccc(C(=O)NC(C)CC)cc2n2c(=O)n(CC(N)=O)nc12` (stereo unspecified), the activity change, negative = inhibition was 0.505% in assay [4]; -1.09% in assay [1]; -0.231% in assay [5]; -3.53% in assay [2]; -5.63% in assay [3].

Regarding `C[C@H]1[C@H](C)CC[C@]2(C(=O)O[C@@H]3O[C@H](CO)[C@@H](O)[C@H](O)[C@H]3O)CC[C@]3(C(=O)O)C(=CCC4[C@@]5(C)CC[C@H](O[C@@H]6O[C@H](CO)[C@@H](O)[C@H](O)[C@H]6O)C(C)(C)C5CC[C@]43C)[C@H]12` (stereo partly specified), the activity change, negative = inhibition in assay [4] is 0.269%; in assay [1], -1.22%; in assay [5] it was 7.46%; in assay [2] it was -15.1%; in assay [3], 5.26%.

As to `COc1cc2c(NC3CCN(CC4CCCCC4)CC3)nc(N3CCCN(C(C)C)CC3)nc2cc1OCCCN1CCCCC1`, the activity change, negative = inhibition was -0.782% and 13.1% in assay [4]; 13.2% in assay [1]; -78% and -39.4% in assay [5]; -18.5% and 4.11% in assay [2]; -1.05% and 5.07% in assay [3].

Consider `O=C(O)c1cc2cc(F)ccc2[nH]1`, for which the activity change, negative = inhibition in assay [4] is -11.8%; in assay [1], -1.93%; in assay [5], -2.49%; in assay [2], -7.72%; in assay [3], -0.344%.

Turning to `CC(C)CCNC(=O)C1c2c(n(C)c3ccccc23)SCC(=O)N1c1cccc(F)c1` (stereo unspecified), the activity change, negative = inhibition worked out at 10.7% in assay [4]; 0% in assay [1]; 8.91% in assay [5]; 4.13% in assay [2]; 0.051% in assay [3].

With `COc1ccc(CNC(=O)CNC(=O)C2(C)Cn3c(cc4ccccc43)C(=O)N2C)cc1` (stereo unspecified), the activity change, negative = inhibition in assay [4] is -3.91%; in assay [1], 4.47%; in assay [5], -2.18%; in assay [2], 2.76%; in assay [3] it was -1.2%.

For the compound `CCCN1C(=O)c2c(C(=O)NCc3ccc(Cl)cc3)ncn2CC1(C)C(=O)NCCC(C)C` (stereo unspecified), the activity change, negative = inhibition in assay [4] was determined as 1.01%; in assay [1] it was 0.197%; in assay [5], 2.87%; in assay [2], 0.756%; in assay [3], 6.57%.

For the compound `CCCN1C(=O)c2c(C(=O)NCc3ccccn3)ncn2CC1(C)C(=O)NCc1ccc(C)cc1` (stereo unspecified), the activity change, negative = inhibition was -1.29% in assay [4]; 0% in assay [1]; 5.13% in assay [5]; 3.16% in assay [2]; 0.977% in assay [3].

Regarding `COC(=O)[C@H](O)[C@H]1C(C)(C)[C@H](OC(C)=O)[C@@]2(O)C(=O)[C@]1(C)C1CC[C@]3(C)C(CC(=O)O[C@H]3c3ccoc3)[C@]13O[C@@H]32` (stereo partly specified), the activity change, negative = inhibition in assay [4] is 2.26%; in assay [1] it was -1.98%; in assay [5], 5.22%; in assay [2] it was -11.2%; in assay [3] it was -1.2%.

Turning to `COc1cccc(Nc2ncc3c(n2)C(C)(C(=O)NC2CCOCC2)CC3)c1` (stereo unspecified), the activity change, negative = inhibition in assay [4] is -8.45%; in assay [1], -1.9%; in assay [5], -3.29%; in assay [2], -7.3%; in assay [3], 7.18%.

In the case of `O=C(Cc1ccccc1Cl)NC1CCN(c2cc(-c3cccs3)[nH]n2)C1` (stereo unspecified), the activity change, negative = inhibition is -10.2% in assay [4]; -9.33% in assay [1]; -5.72% in assay [5]; -18.9% in assay [2]; -17.4% in assay [3].

With `CC1(C)CCC2(C(=O)O)C(O)CC3(C)C(=CCC4C5(C)CCC(OC6OC(CO)C(O)C(O)C6OC6OC(CO)C(O)C(O)C6OC6OCC(O)(CO)C6O)C(C)(C)C5CCC43C)C2C1` (stereo unspecified), the activity change, negative = inhibition in assay [4] is 0%; in assay [1], 12.6%; in assay [5], 3.54%; in assay [2] it was -1.78%; in assay [3], 10.6%.

On to `Cc1ccc(C)c(CSc2nnc3n(CCCOC(C)C)c(=O)c4ccccc4n23)c1`, for which the activity change, negative = inhibition in assay [4] was 1.29%; in assay [1], 0%; in assay [5], 4.21%; in assay [2], 2.23%; in assay [3], 6.5%.

Turning to `O=C(c1ccc(OCCCc2cnc[nH]2)cc1)C1CC1`, the activity change, negative = inhibition is 2.69% in assay [4]; 10.5% in assay [1]; -1.79% in assay [5]; -18.7% in assay [2]; -0.669% in assay [3].

As to `CCc1cc2c(cc3n2CC(C)(C(=O)NC2CCCCCC2)N(CCC(C)C)C3=O)s1` (stereo unspecified), the activity change, negative = inhibition amounted to 3.93% in assay [4]; 0% in assay [1]; 9.79% in assay [5]; 8.88% in assay [2]; 2.08% in assay [3].

As to `COc1ccccc1CNC(=O)CCc1nnc2n(CC(C)C)c(=O)c3ccccc3n12`, the activity change, negative = inhibition in assay [4] was -9.22%; in assay [1], -0.127%; in assay [5], -0.433%; in assay [2], -4.08%; in assay [3], -6.96%.

Regarding `CCn1c(=O)[nH]c2ccc3c(c21)C(=O)c1ccccc1C3=O`, the activity change, negative = inhibition in assay [4] was -4.08%; in assay [1] it was -8.5%; in assay [5], -10.2%; in assay [2], -8.26%; in assay [3], -16.8%.

In the case of `CCCn1c(=O)c2cc(F)ccc2n2c(SCC(=O)NCc3ccc(C)cc3)nnc12`, the activity change, negative = inhibition was -0.637% in assay [4]; 1.81% in assay [1]; 5.28% in assay [5]; -1.45% in assay [2]; 4.39% in assay [3].

`Cc1nnc([C@@H]2CC(F)(F)CN2C(=O)c2nccc3ccccc23)o1`: the activity change, negative = inhibition in assay [4] is -6.55%; in assay [1] it was -15.7%; in assay [5], -1.65%; in assay [2] it was -10.4%; in assay [3], -5.59%.

With `Cc1ccccc1N1Cc2c(NCc3ccc(F)cc3)ncnc2N(C)CC1=O`, the activity change, negative = inhibition in assay [4] was -3.19%; in assay [1], -2.14%; in assay [5] it was -1.8%; in assay [2] it was -11%; in assay [3], -2.9%.

Regarding `Cn1c(=O)oc2cc(S(=O)(=O)N3CCCC(C(=O)N4CCC(Cc5nncn5-c5ccccc5)CC4)C3)ccc21` (stereo unspecified), the activity change, negative = inhibition in assay [4] is -1.03%; in assay [1], 0.008%; in assay [5] it was 5.38%; in assay [2], -10.8%; in assay [3] it was 3.22%.

Regarding `O=C(NCCO)c1cc(C(=O)NCCO)cc(C(=O)NCCO)c1`, the results for the activity change, negative = inhibition in assay [1], in assay [2] and in assay [3] were 1.22%, -5.89% and 4.81%, respectively.

For `CC1=CC(=O)C[C@H]2[C@@H]1CC[C@@H](C)[C@]21CO[C@H](c2ccoc2)C1=O`, the activity change, negative = inhibition was 0% in assay [4]; -2.95% in assay [1]; 0.477% in assay [5]; -14.8% in assay [2]; 1.8% in assay [3].

In the case of `CCc1cc2c(cc3n2CC(C)(C(=O)NC2CCCCC2)N(Cc2ccccc2C)C3=O)s1` (stereo unspecified), the activity change, negative = inhibition is -1.64% in assay [4]; 3.7% in assay [1]; -2.33% in assay [5]; 9.8% in assay [2]; -0.89% in assay [3].

For `CCN1CCCC1CNC(=O)c1cc(S(N)(=O)=O)ccc1OC` (stereo unspecified), the activity change, negative = inhibition in assay [4] was 4.22%; in assay [1], 12.3%; in assay [5], 7.68%; in assay [2], -2.54%; in assay [3], 4.22%.

As to `C=CC(C)(O)CC/C=C(\C)C(=O)OC1C(O)C(CO)OC(OC(=O)C23CCC(C)(C)CC2C2=CCC4C5(C)CCC(OC6OC(COC7OCC(OC(C)=O)C(O)C7OC7OC(COC(C)=O)C(O)C(O)C7O)C(O)C(O)C6O)C(C)(C)C5CCC4(C)C2(C)C(O)C3O)C1OC1OCC(OC2OCC(O)C(OC3OCC(O)C(O)C3O)C2O)C(O)C1O` (stereo unspecified), the activity change, negative = inhibition in assay [4] is -2.49%; in assay [1], 5.57%; in assay [5], 0.255%; in assay [2], -5.66%; in assay [3] it was 5.43%.

As to `C=C1C2(C)CC3C4(C)OC(C5OC56C4=CC(=O)OC6(C)C)C3(C)C13C(=O)OC(C)C3(O)C2=O` (stereo unspecified), the activity change, negative = inhibition in assay [4] was 3.25%; in assay [1], 7.61%; in assay [5], 10.5%; in assay [2], -8.1%; in assay [3], 4.26%.

With `Cc1ccc(-c2n[nH]n3c2nc(=O)c2ccc(C(=O)NCCc4ccccc4)cc23)cc1`, the activity change, negative = inhibition in assay [4] was -2.39%; in assay [1], 1.06%; in assay [5] it was 5.64%; in assay [2], 5.42%; in assay [3], 1.29%.

For `COc1ccc2cc3n(c2c1)CC(C)(C(=O)NC1CCCC1)N(Cc1ccc(C)cc1)C3=O` (stereo unspecified), the activity change, negative = inhibition was -4.28% in assay [4]; 4.25% in assay [1]; -3.94% in assay [5]; -9.91% in assay [2]; -4.67% in assay [3].
